{
  "source": "PubChem BioAssay AID651820",
  "about": "(National Center for Advancing Translational Sciences (NCATS), 2012)",
  "note": "The campaign covered roughly 340,000 compounds. About 12,000 (3.5%) were called active. Inconclusive results, whose numbers are uncertain, are shown with a selection of clear calls. Calls come from the whole dose curve; as a rule, active = well fitted inhibition curve with a large enough effect; inconclusive = small, poorly fitted or top-dose-only effect, or another doubt; inactive = no such curve, though single readings can be large or run the other way. No potency is given beside an inconclusive call; the fits are too rough. % is set by controls: 0 for no effect and ±100 for the full control effect; potency is the fitted concentration of half-maximal effect; tags give direction and shape of the fitted curve.",
  "data": [
    {"assay": "qHTS Assay for Inhibitors of Hepatitis C Virus (HCV)", "settings": "Huh7.5.1 HCVcc-Cre (HCVcc is cell-culture hepatitis C virus) infection, luciferase reporter, 44 h; activity change, negative = inhibition: at 41.8 µM (top of the series) unless noted", "in_short": "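Infectious HCVcc-Cre (~0.5 moi) was added to cells just after compound, with cells seeded 4 h earlier at 1,000 per well. Luciferase activity after 44 h culture reported infection; substrate was incubated 15 min at room temperature before reading.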", "values": [
      {"smiles": "Cc1ccccc1OCC(=O)OCC(=O)Nc1cc(S(C)(=O)=O)ccc1Cl", "activity change, negative = inhibition": "inactive: 4.03%"},
      {"smiles": "Cc1cc(C(=O)CSc2nncn2C)c(C)n1-c1ccccc1", "activity change, negative = inhibition": "inactive: 8.24%"},
      {"smiles": "CCOC(=O)c1ccccc1NC(=O)CN(c1ccccc1OC)S(C)(=O)=O", "activity change, negative = inhibition": "inactive: -16.4%"},
      {"smiles": "O=C(NCCc1csc(-c2cccnc2)n1)c1c(F)cccc1F", "Potency": "active: 11.2 µM"},
      {"smiles": "CC(=O)Nc1ccccc1C(=O)OCC(=O)c1ccccc1Cl", "activity change, negative = inhibition": "inactive: -0.396%"},
      {"smiles": "NC(=O)c1sc2nccc(Nc3ccccc3)c2c1N", "Potency": "inconclusive [inhibitor, partial curve]"},
      {"smiles": "CCN1/C(=C/C=C/c2oc3ccc4ccccc4c3[n+]2CC)Oc2ccc3ccccc3c21", "Potency": "inconclusive [inhibitor, partial curve, poor fit]"},
      {"smiles": "Cc1cc(=O)oc2cc(OCC(=O)N3CCC(O)CC3)c(Cl)cc12", "activity change, negative = inhibition": "inactive: 10.3%"},
      {"smiles": "CCNC(=S)N/N=C/c1ccc(-c2ccccc2)o1", "Potency": "inconclusive [inhibitor, single point]"},
      {"smiles": "O=C(NC(=S)N1CCCc2ccccc21)c1ccc([N+](=O)[O-])cc1", "Potency": "inconclusive [inhibitor, single point]"},
      {"smiles": "CCOC(=O)c1c(C)n(C)c2c(C)cc(O)c(OC(C)=O)c12", "activity change, negative = inhibition": "inactive: -22.7%"},
      {"smiles": "Cc1ccc(-c2nn[nH]n2)o1", "activity change, negative = inhibition": "inactive: 0.597%"},
      {"smiles": "Cc1nc(N2CCOCC2)nc(N2CCCCC2C)c1[N+](=O)[O-]", "note": "(centres undefined)", "Potency": "inconclusive [inhibitor, partial curve]"},
      {"smiles": "CC[C@H](CO)Oc1cc(NCc2ccc(Cl)c(Cl)c2)c2ncn(C(C)C)c2c1", "Potency": "active: 11.2 µM"},
      {"smiles": "Cc1ccc(NC(=O)CN(C)C(=O)Cn2ncc(Cl)c(Cl)c2=O)cc1", "Potency": "active: 3.16 µM"},
      {"smiles": "c1cn2c(NC3CCCC3)c(-c3ccc(N4CCOCC4)cc3)nc2cn1", "activity change, negative = inhibition": "inactive: -16.8%"},
      {"smiles": "Cc1cc(C)c(NC(=O)CN(C)C(=O)c2ccc(OCc3ccccc3)cc2)c(C)c1", "activity change, negative = inhibition": "inactive: 18.4%"},
      {"smiles": "Cc1ccc(C(NC(=O)N2CCOCC2)=C(Cl)Cl)cc1F", "Potency": "active: 10 µM"},
      {"smiles": "Cc1ccc(C(=O)Cn2nnc3ccccc32)cc1C", "activity change, negative = inhibition": "inactive: 0.595%"},
      {"smiles": "CCOC(=O)N1CCN(C(=O)COC(=O)COc2c(C)cc(C)cc2C)CC1", "Potency": "inconclusive [inhibitor, single point]"},
      {"smiles": "COc1ccccc1CNC(=O)Cn1nc(C(F)(F)F)cc1C", "activity change, negative = inhibition": "inactive: 1.86%"},
      {"smiles": "CN(C)S(=O)(=O)c1ccc(Cl)c(NC(=O)CN2CCCC2)c1", "Potency": "inconclusive [inhibitor, partial curve]"},
      {"smiles": "CSc1nc2sc3c(c2c(=O)[nH]1)CCCC3", "Potency": "inconclusive [inhibitor, single point]"},
      {"smiles": "COc1cccc(CN2CC(C(=O)NCCc3ccc(C)o3)CCC2=O)c1", "note": "(centres undefined)", "Potency": "inconclusive [inhibitor, single point]"}
    ]}
  ]
}
